Biological target: Noro protease (Norovirus, UniProt Q83883)
Assay: Norovirus protease inhibition assay (Noro-Norwalk FRET protease assay)
Conditions: IC50 (μM), peptide substrate 10 μM, 90 minutes at 37° C., compounds 200 μM to 10.2 nM

Going from `CC(C)C[C@H](NC(=O)OC(c1ccc(F)cc1)C(C)(C)c1cccc(Cl)c1)C(=O)N[C@H](C=O)C[C@@H]1CCNC1=O` (stereo partly drawn) [Compound C238, 2-(3-chlorophenyl)-1-(4-fluorophenyl)-2-methylpropyl ((S)-4-methyl-1-oxo-1-(((S)-1-oxo-3-((S)-2-oxopyrrolidin-3-yl)propan-2-yl)amino)pentan-2-yl)carbamate] to `CC(C)C[C@H](NC(=O)OC(c1ccc(Cl)cc1)C(C)(C)c1cccc(Cl)c1)C(=O)N[C@H](C=O)C[C@@H]1CCNC1=O` (some centres unmarked) [Compound C246], the IC50 rises from 1.6 µM to 52.1 µM (33-fold).

`CC(C)C[C@H](NC(=O)OC1CCCC1Cc1ccccc1)C(=O)N[C@@H](C[C@@H]1CCNC1=O)C(=O)C(N)=O` (stereo partly drawn) [Compound C240, 2-Benzylcyclopentyl ((S)-1-(((S)-4-amino-3,4-dioxo-1-((S)-2-oxopyrrolidin-3-yl)butan-2-yl)amino)-4-methyl-1-oxopentan-2-yl)carbamate] and `CC(C)C[C@H](NC(=O)OCCCc1ccccc1)C(=O)N[C@@H](C[C@@H]1CCNC1=O)C(=O)C(N)=O` [Compound C256] cannot be ordered by IC50: greater than 200 µM for the first, greater than 200 µM for the second.

First: O=C(N[C@@H](CC1CCCCC1)C(=O)N[C@@H](C[C@@H]1CCNC1=O)C(=O)C(=O)NC1CC1)OC(Cc1cccc(Cl)c1)c1cccc(Cl)c1 (stereo partly drawn) [Compound C241, 1,2-Bis(3-chlorophenyl)ethyl ((S)-3-cyclohexyl-1-(((S)-4-(cyclopropylamino)-3,4-dioxo-1-((S)-2-oxopyrrolidin-3-yl)butan-2-yl)amino)-1-oxopropan-2-yl)carbamate]
Second: CC(C)C[C@H](NC(=O)OC(Cc1cccc(Cl)c1)c1cccc(Cl)c1)C(=O)N[C@@H](C[C@@H]1CCNC1=O)C(=O)C(=O)NC1CC1 (stereo partly drawn) [Compound C242, 1,2-Bis(3-chlorophenyl)ethyl ((S)-1-(((S)-4-(cyclopropylamino)-3,4-dioxo-1-((S)-2-oxopyrrolidin-3-yl)butan-2-yl)amino)-4-methyl-1-oxopentan-2-yl)carbamate]
The IC50 of the first is 2.5-fold higher: 85.7 µM for the first, 33.9 µM for the second. The second is the more potent here.

Compared with `CC(C)C[C@H](NC(=O)OC(Cc1cccc(Cl)c1)c1ccccc1)C(=O)N[C@@H](C[C@@H]1CCNC1=O)C(=O)C(=O)N1CCCCC1` (stereo partly drawn) [Compound C243, 2-(3-Chlorophenyl)-1-phenylethyl ((S)-1-(((S)-3,4-dioxo-1-((S)-2-oxopyrrolidin-3-yl)-4-(piperidin-1-yl)butan-2-yl)amino)-4-methyl-1-oxopentan-2-yl) carbamate], `CC(C)C[C@H](NC(=O)OC(c1ccccc1)C(C)(C)c1cccc(Cl)c1)C(=O)N[C@@H](C[C@@H]1CCNC1=O)C(=O)C(=O)N1CCCCC1` (some centres unmarked) [Compound C270] is lower in IC50: greater than 200 µM for the first, 106 µM for the second. The second is the more potent here.

Compared with `CC1(C)CC(CC(NC(=O)[C@H](CC2CCCCC2)NC(=O)OCc2cccc(Cl)c2)C(=O)C(=O)NC2CC2)C(=O)N1` (stereo partly drawn) [Compound C244, 3-Chlorobenzyl ((2S)-3-cyclohexyl-1-((4-(cyclopropylamino)-1-(5,5-dimethyl-2-oxopyrrolidin-3-yl)-3,4-dioxobutan-2-yl)amino)-1-oxopropan-2-yl) carbamate], `CC1(C)CC(CC(NC(=O)[C@H](CC2CCCCC2)NC(=O)OC(c2ccc(Cl)cc2)C(C)(C)c2cccc(Cl)c2)C(=O)C(=O)NC2CC2)C(=O)N1` (some centres unmarked) [Compound C245] is higher in IC50: 97.6 µM for the first, greater than 200 µM for the second.

First: CC(C)C[C@H](NC(=O)OC(c1ccc(F)cc1)C(C)(C)c1cccc(Cl)c1)C(=O)N[C@@H](C[C@@H]1CCNC1=O)C(=O)C(=O)NC1CC1 (some centres unmarked) [Compound C247]
Second: CC(C)C[C@H](NC(=O)OC(c1ccccc1)C(F)(F)c1cccc(Cl)c1)C(=O)N[C@@H](C[C@@H]1CCNC1=O)C(=O)C(=O)NC1CC1 (some centres unmarked) [Compound C258]
The IC50 of the first is 4.3-fold higher: 183 µM for the first, 42.9 µM for the second. The second is the more potent here.

`CC(C)C[C@H](NC(=O)OC(c1ccccc1)C(C)(C)c1cccc(Cl)c1)C(=O)N[C@@H](C[C@@H]1CCNC1=O)C(=O)C(=O)N1CCN(C)CC1` (some centres unmarked) [Compound C248] and `CC(C)C[C@H](NC(=O)OC(c1ccccc1)C(C)(C)c1cccc(Cl)c1)C(=O)N[C@@H](C[C@@H]1CCNC1=O)C(=O)C(=O)N1CCNCC1` (some centres unmarked) [Compound C274] cannot be ordered by IC50: greater than 200 µM for the first, greater than 200 µM for the second.

`CC(C)C[C@H](NC(=O)OC(Cc1cccc(Cl)c1)c1ccccc1)C(=O)N[C@@H](C[C@@H]1CCNC1=O)C(=O)NS(=O)(=O)C1CC1` (some centres unmarked) [Compound C249] and `CC(C)C[C@H](NC(=O)OC(c1ccccc1)C(F)(F)c1cccc(Cl)c1)C(=O)N[C@@H](C[C@@H]1CCNC1=O)C(=O)CO` (some centres unmarked) [Compound C279] cannot be ordered by IC50: greater than 200 µM for the first, greater than 200 µM for the second.

`O=C[C@H](C[C@@H]1CCNC1=O)NC(=O)[C@H](CC1CCCCC1)NC(=O)OC(c1cccc(Cl)c1)C1(c2cccc(Cl)c2)CC1` (stereo partly drawn) [Compound C250, (3-Chlorophenyl)(1-(3-chlorophenyl)cyclopropyl)methyl ((S)-3-cyclohexyl-1-oxo-1-(((S)-1-oxo-3-((S)-2-oxopyrrolidin-3-yl)propan-2-yl)amino)propan-2-yl)carbamate] and `O=C[C@H](C[C@@H]1CCNC1=O)NC(=O)[C@H](CC1CCCCC1)NC(=O)OC(Cc1cccc(Cl)c1)c1cccc(Cl)c1` (stereo partly drawn) [Compound C272, 1,2-Bis(3-chlorophenyl)ethyl ((S)-3-cyclohexyl-1-oxo-1-(((S)-1-oxo-3-((S)-2-oxopyrrolidin-3-yl)propan-2-yl)amino)propan-2-yl)carbamate] are within 1.5-fold of each other in IC50: 11.7 µM for the first, 16.4 µM for the second.

Going from `CC(C)C[C@H](NC(=O)OC(c1ccccc1)C(F)(F)c1cccc(Cl)c1)C(=O)N[C@@H](C[C@@H]1CCNC1=O)C(=O)C(N)=O` (some centres unmarked) [Compound C251] to `CC(C)C[C@H](NC(=O)OC(c1ccccc1)C(F)(F)c1cccc(Cl)c1)C(=O)N[C@H](C=O)C[C@@H]1CCNC1=O` (some centres unmarked) [Compound C252], the IC50 falls from 58.2 µM to 0.973 µM (60-fold). The second is the more potent here.

`CC(C)(c1cccc(Cl)c1)C(OC(=O)N[C@@H](Cc1ccccc1)C(=O)N[C@@H](C[C@@H]1CCNC1=O)C(=O)C(N)=O)c1ccccc1` (some centres unmarked) [Compound C254] and `CC(C)(c1cccc(Cl)c1)C(OC(=O)N[C@@H](Cc1ccccc1)C(=O)N[C@@H](C[C@@H]1CCNC1=O)C(=O)C(=O)NC1CC1)c1ccccc1` (some centres unmarked) [Compound C284] cannot be ordered by IC50: greater than 200 µM for the first, no less than 202 µM for the second.

Compared with `NC(=O)C(=O)[C@H](C[C@@H]1CCNC1=O)NC(=O)[C@H](Cc1ccccc1)NC(=O)OC(CCc1ccccc1)c1ccccc1` (some centres unmarked) [Compound C255], `CC(C)C[C@H](NC(=O)OC(CCc1ccccc1)c1ccccc1)C(=O)N[C@H](C=O)C[C@@H]1CCNC1=O` (some centres unmarked) [Compound C259] is lower in IC50: greater than 200 µM for the first, 4.4 µM for the second.

Going from `CC(C)(c1cccc(Cl)c1)C(OC(=O)N[C@@H](Cc1ccccc1)C(=O)N[C@H](C=O)C[C@@H]1CCNC1=O)c1ccccc1` (some centres unmarked) [Compound C257] to `CC(C)C[C@H](NC(=O)O[C@@H](c1ccccc1)C(C)(C)c1cccc(Cl)c1)C(=O)N[C@H](C=O)C[C@@H]1CCNC1=O` [Compound C275], the IC50 falls from greater than 200 µM to 1.5 µM.

Compared with `CC(C)C[C@H](NC(=O)OC(c1ccccc1)C(C)(C)c1cccc(Cl)c1)C(=O)N[C@@H](C[C@@H]1CCNC1=O)C(=O)C(=O)NCCN(C)C` (some centres unmarked) [Compound C260], `CC(C)C[C@H](NC(=O)O[C@H](c1ccccc1)C(C)(C)c1cccc(Cl)c1)C(=O)N[C@H](C=O)C[C@@H]1CCNC1=O` [Compound C276] is lower in IC50: greater than 200 µM for the first, 3.5 µM for the second. The second is the more potent here.

Going from `CC(C)C[C@H](NC(=O)OC(c1ccccc1)C(C)(C)c1cccc(Cl)c1)C(=O)N[C@@H](C[C@@H]1CCNC1=O)C(=O)C(=O)N1CCN(C(=O)OC(C)(C)C)CC1` (some centres unmarked) [Compound C261] to `CC(C)C[C@H](NC(=O)OC(Cc1ccccc1)c1ccccc1)C(=O)N[C@@H](C[C@@H]1CCNC1=O)C(=O)C(=O)N1CCN(C(=O)OC(C)(C)C)CC1` (some centres unmarked) [Compound C280], the IC50 rises from 193 µM to greater than 200 µM. The first is the more potent here.

Going from `O=C[C@H](C[C@@H]1CCNC1=O)NC(=O)[C@H](CC1CCCCC1)NC(=O)O[C@@H]1CCC[C@H]1Cc1cccc(Cl)c1` [Compound C262] to `O=C(N[C@@H](CC1CCCCC1)C(=O)N[C@@H](C[C@@H]1CCNC1=O)C(=O)C(=O)NC1CC1)O[C@H]1CCC[C@@H]1Cc1cccc(Cl)c1` [Compound C264], the IC50 rises from 3.2 µM to 12.7 µM (4-fold). The first is the more potent here.

Compared with `O=C(N[C@@H](CC1CCCCC1)C(=O)N[C@@H](C[C@@H]1CCNC1=O)C(=O)C(=O)NC1CC1)O[C@@H]1CCC[C@@H]1Cc1cccc(Cl)c1` [Compound C265], `CC1(C)CC(CC(NC(=O)[C@H](CC2CCCCC2)NC(=O)OC(c2cccc(Cl)c2)C(C)(C)c2cccc(Cl)c2)C(=O)C(=O)NC2CC2)C(=O)N1` (some centres unmarked) [Compound C281] is higher in IC50: 10.4 µM for the first, greater than 200 µM for the second.

`CC(C)C[C@H](NC(=O)OC(c1cccc(Cl)c1)C(F)(F)c1cccc(Cl)c1)C(=O)N[C@H](C=O)C[C@@H]1CCNC1=O` (some centres unmarked) [Compound C266] and `CC(C)C[C@H](NC(=O)O[C@@H](c1cccc(F)c1)C(C)(C)c1cccc(Cl)c1)C(=O)N[C@H](C=O)C[C@@H]1CCNC1=O` [Compound C268] are within 1.5-fold of each other in IC50: 0.796 µM for the first, 0.549 µM for the second.

Compared with `CCCCC[C@H](NC(=O)OC(c1ccccc1)C(C)(C)c1cccc(Cl)c1)C(=O)N[C@H](C=O)C[C@@H]1CCNC1=O` (some centres unmarked) [Compound C267], `CC(C)C[C@H](NC(=O)O[C@H](c1cccc(F)c1)C(C)(C)c1cccc(Cl)c1)C(=O)N[C@H](C=O)C[C@@H]1CCNC1=O` [Compound C269] is 3.4-fold lower in IC50: 7.5 µM for the first, 2.2 µM for the second.

`CCOCCNC(=O)C(=O)[C@H](C[C@@H]1CCNC1=O)NC(=O)[C@H](CC1CCCCC1)NC(=O)OC(c1ccccc1)C(C)(C)c1cccc(Cl)c1` (some centres unmarked) [Compound C271] and `CC(C)(c1cccc(Cl)c1)C(OC(=O)N[C@@H](CC1CCCCC1)C(=O)N[C@@H](C[C@@H]1CCNC1=O)C(=O)CO)c1ccccc1` (some centres unmarked) [Compound C273] cannot be ordered by IC50: greater than 200 µM for the first, greater than 200 µM for the second.

First: CC(C)C[C@H](NC(=O)OC(c1ccccc1)C1(c2cccc(Cl)c2)CCC1)C(=O)N[C@H](C=O)C[C@@H]1CCNC1=O (some centres unmarked) [Compound C277]
Second: CC(C)C[C@H](NC(=O)OC(c1ccccc1)C1(c2cccc(Cl)c2)CCCC1)C(=O)N[C@H](C=O)C[C@@H]1CCNC1=O (some centres unmarked) [Compound C278]
The IC50 of the first is 9.5-fold higher: 33.4 µM for the first, 3.5 µM for the second. The second is the more potent here.

Compared with `CC(C)C[C@H](NC(=O)OC(Cc1cccc(Cl)c1)c1cccc(Cl)c1)C(=O)N[C@H](C=O)C[C@@H]1CCNC1=O` (stereo partly drawn) [Compound C282, 1,2-Bis(3-chlorophenyl)ethyl ((S)-4-methyl-1-oxo-1-(((S)-1-oxo-3-((S)-2-oxopyrrolidin-3-yl)propan-2-yl)amino)pentan-2-yl)carbamate], `CC(C)C[C@H](NC(=O)OC(Cc1ccccc1)c1ccccc1)C(=O)N[C@@H](C[C@@H]1CCNC1=O)C(=O)C(=O)N1CCNCC1` (some centres unmarked) [Compound C283] is higher in IC50: 1 µM for the first, greater than 200 µM for the second. The first is the more potent here.
